B1: OR4K15 (parent)
chain: GUUAACGGUCAUAGGCCAUGGAAACUAGGAGCACCAUUUCGCUGCCAGUGAAGAAAUGAACAAAGAAAAUCUGGGCCAGGCAGGCAUCAAAAGAAAUAGUCUUGCGCUCAACCAGAAAGUCUGUAAUCAUUUUAAGGGUA

The source gives no read counts; variants with many changes may rest on few reads.

In this data set the parent is B1. As to the kind of experiment: self-cleavage, relative activity (ratio to wild type); higher = more cleavage; in vitro, sequencing; the parent is a self-cleaving ribozyme.
On to GCUAACGGUCAUAGGCCAUGGAAACUAGGAGCACCAUUUCGCUGCCAGUGAAGAAAUGAACAAAGAAAAUCUGGGCCGGGCAGGCAUCAAAAGAAAUAGUCUUGCGCUCGACCAGAAAGUCUGUAAUCAUUUUAAGGGUA [U2C A78G A110G], for which the self-cleavage turned out to be 0.01. For the variant GCUAACGGUCAUAGGCCAUGGAAACUAGGAGCACCAUUUCGCUGCCAGUGAAGAAAUGAACAAAGAAAAUCUGGGCCAGGCAGGCAUCAAGAGAAAUAGUCUUGUGCUCAACCAGAGAGUCUGUAACCAUUCUAAGGGUA [U2C A91G C105U A117G U127C U132C], the self-cleavage worked out at 0.

As for GCUAACGGUCAUAGGCCAUGGAAACUAGGAGCACCAUUUCGCUGCCAGUGAAGAAAUGAACAAAGAAAGUCUGGGCCAGGCAGGCAUCAAAAGAAAUAGCCUUGCGCUCGACCAGAAAGUCUGUAAUCAUUUUAAGGGUA [U2C A69G U100C A110G], the self-cleavage is 0.18. On to GCUAACGGUCAUAGGCCAUGGAAACUAGGAGCACCAUUUCGCUGCCAGUGAAGAAAUGAACAAAGAAAAUCUGGGCCAGGCAGGCAUCAAAAGAAAUAGUCUUGCGCUCAACCAGAAGGUCUGUAAUCAUCUUAAGGGUA [U2C A118G U131C], for which the self-cleavage stood at 0.16. For GCUAACGGUCAUAGGCCAUGGAAACUAGGAGCACCAUUUCGCUGCCAGUGAAGAAAUGAACAAAGAAAAUCUGGGCCAGGCAGGCAUCAAGAGAAAUAGUCUUGCGCACAACCAGAAAGUCUGUAAUCAUUUUAAGGGUA [U2C A91G U108A], the self-cleavage came to 0.03. As for GCUAACGGUCAUAGGCCAUGGAAACUAGGAGCACCAUUUCGCUGCCAGUGAAGAAAUGAACAAAGAAAAUCUGGGCCAGGCAGGCAUCAAAGGAAAUAGUCUUGCGCUCAACCAGAAAGUCUGUAAUCGUUAUAAGGGUA [U2C A92G A129G U132A], the self-cleavage worked out at 0.73. For GCUAACGGUCAUAGGCCAUGGAAACUAGGAGCACCAUUUCGCUGCCAGUGAAGAAAUGAACAAAGAAAAUCUGGGCCGGGCAGGCAUCAAAAGAAAUAGUCUUGCGCUCAACCAGAAAGUCUGUAAUCAUUUUGAGGGUA [U2C A78G A134G], the self-cleavage was 0.63. Regarding GCUAACGGUCAUAGGCCAUGGAAACUAGGAGCACCAUUUCGCUGCCAGUGAAGAAAUGAACAAAGAAAAUCUGGGCCAGGCAGGCAUCAAAUGAAAUAGUCUUGCGCUCAACCAGAAAGUCUGUAAUAAUUUUAAGGGUA [U2C A92U C128A], the self-cleavage is 0.5. With GCUAACGGUCAUAGGCCAUGGAAACUAGGAGCACCAUUUCGCUGCCAGUGAAGAAAUGAACAAAGAAAAUCUGGGCCAGGCAGGCAUCAAAAGGAAUAGUCUUGCGCUCAUCCAGAAAGCCUGUAAUCAUUUUAAGGGUA [U2C A94G A111U U120C], the self-cleavage came to 0.

As for GCUAACGGUCAUAGGCCAUGGAAACUAGGAGCACCAUUUCGCUGCCAGUGAAGAAAUGAACAAAGAAAAUCUGGGCCAGGCAGGCAUCGAAAGAAAUAGUCUUGCGCUCGACCAGAAAGUCUGUAAUCAUUUUAAGGGUA [U2C A89G A110G], the self-cleavage was determined as 0.14. Turning to GCUAACGGUCAUAGGCCAUGGAAACUAGGAGCACCAUUUCGCUGCCAGUGAAGAAAUGAACAAAGAAAAUCUGGGCCUGGCAGGCAUCAAAAGAAAUAGUCUUGCGCUCAGCCGGAAAGUCUGUAACCAUUUUAAGGGUA [U2C A78U A111G A114G U127C], the self-cleavage amounted to 0.

In the case of GCUAACGGUCAUAGGCCAUGGAAACUAGGAGCACCAUUUCGCUGCCAGUGAAGAAAUGAACAAAGAAAAUCUGGGCCAGGCAGGCAUCACAAGAAAUAGUCUUGCGCUCAACCAGAAAGUCUGUGAUCAUUUUAAGGGUA [U2C A90C A125G], the self-cleavage was 0.24. The figure for GCUAACGGUCAUAGGCCAUGGAAACUAGGAGCACCAUUUCGCUGCCAGUGAAGAAAUGAACAAAGAAAAUCUGGGCCAGGCAGGCAUCAAAAGAAGUAGUCUUGCGCUCAACCAGAAGGUCUGUAAUCAUUUUAAGGGUA [U2C A96G A118G] is 1.66; for GCUAACGGUCAUAGGCCAUGGAAACUAGGAGCACCAUUUCGCUGCCAGUGAAGAAAUGAACAAAGAAAAUCUGGGCCAGGCAGGCAUCAAGAGAAAUAGCCUUGCGCUCAACCAGAAAGUCUGUAAUCAUUUUAAGGGUA [U2C A91G U100C] it is 0.86; for GCUAACGGUCAUAGGCCAUGGAAACUAGGAGCACCAUUUCGCUGCCAGUGAAGAAAUGAACAAAGAAAAUCUGGGCCGGGCAGGCAUCAAAAGAAAUAGUCUUGCGCUCAACCAGAAAGUCCGUAAUCAUUUUAAGGGUA [U2C A78G U122C] it is 0.21. The figure for GCUAACGGUCAUAGGCCAUGGAAACUAGGAGCACCAUUUCGCUGCCAGUGAAGAAAUGAACAAAGAAAAUCUGGGCCAGGCAGGCAUCAAAGGAAGUAGUCCUGCGCUCAACCAGAAAGUCUGUAAUCAUUUUAAUGGUA [U2C A92G A96G U102C G136U] is 1.59; for GCUAACGGUCAUAGGCCAUGGAAACUAGGAGCACCAUUUCGCUGCCAGUGAAGAAAUGAACAAAGAAAAUCUGGGCCAGGCAGGCAUCAAAAGAAAUAGUCUUGCGCUCGACCUGAAAGUCUGUAAUCAUUUUAAGGGUA [U2C A110G A114U] it is 0; for GCUAACGGUCAUAGGCCAUGGAAACUAGGAGCACCAUUUCGCUGCCAGUGAAGAAAUGAACAAAGAAAAUCUGGGCCAGGCAGGCAUCAAAAGAAAUAGUCUUGCGCUCAACCAGAAUGUCUGUAAUCAUUUUCAGGGUA [U2C A118U A134C] it is 0.31. For the variant GCUAACGGUCAUAGGCCAUGGAAACUAGGAGCACCAUUUCGCUGCCAGUGAAGAAAUGAACAAAGAAGAUCUGGGCCAGGCAGGCAUCAAAAGAAAUAGUCUUGCGCUCAACCAGAAAAUCUGUAAUCAUUUUAAGGGUA [U2C A68G G119A], the self-cleavage stood at 0.51. Regarding GCUAACGGUCAUAGGCCAUGGAAACUAGGAGCACCAUUUCGCUGCCAGUGAAGAAAUGAACAAAGAAAAUCUGGGCCAGGCAGGCAUCAAAAGGAAUAGUCUUGCGCUCAACCAGGAAGUCUGUAAUCAUUUUAAGGGUA [U2C A94G A116G], the self-cleavage amounted to 1.44. Then GCUAACGGUCAUAGGCCAUGGAAACUAGGAGCACCAUUUCGCUGCCAGUGAAGAAAUGAACAAAGAAAAUCUGGGCCAGGCAGGCAUCAAUAGAAAUAGUCUCGCGCUCAACCAGAAAGUCUGUAAUCAUUUUAAGGGUA [U2C A91U U103C], with 0.65.

(Values after the RNAGym collection of RNA variant scans (doi:10.7554/elife.90254).)
